No constants are given. Whether binding was seen depends on the method and setting. In cells and extracts the contact can be indirect. Some results given as binding are weak or reduced against the parent protein; the word gives no strength.
Assays:
[1] = target: GST-PLK1 PBD (GST-PLK1 [354–603]) (UniProt P53350); assay: pull-down; bacterially expressed GST-PBD bound to GSH agarose beads incubated with extracts of HeLa cells (exponentially growing or mitotic; untransfected or expressing GFP-BICD2 forms); western blot for BICD2 or GFP; only the target purified
[2] = target: GFP-BICD2 wild type (mouse) (UniProt Q921C5); assay: co-IP; anti-GFP immunoprecipitates of GFP-fusion proteins from transfected HeLa cells (exponentially growing or mitotic), blotted for endogenous PLK1
[3] = target: GFP-BICD2 [T319A, S320A, T321A] (mouse) (UniProt Q921C5); assay: as above
[4] = target: GFP-BICD2 [1–575] (mouse) (UniProt Q921C5); assay: as above
[5] = target: BICD2 (endogenous, HeLa cells) (human (endogenous in HeLa)) (UniProt Q8TD16); assay: co-IP; anti-BICD2 immunoprecipitates of endogenous BICD2 from exponentially growing and mitotic HeLa cell extracts, blotted for PLK1; normal IgG as control

Protein sequences, listed by entry. Tags and fused reporters are not part of them. Lines headed by an entry give the natural chain unless they say otherwise; changes in a name come on top. Residues count along the entry.
UniProt Q921C5: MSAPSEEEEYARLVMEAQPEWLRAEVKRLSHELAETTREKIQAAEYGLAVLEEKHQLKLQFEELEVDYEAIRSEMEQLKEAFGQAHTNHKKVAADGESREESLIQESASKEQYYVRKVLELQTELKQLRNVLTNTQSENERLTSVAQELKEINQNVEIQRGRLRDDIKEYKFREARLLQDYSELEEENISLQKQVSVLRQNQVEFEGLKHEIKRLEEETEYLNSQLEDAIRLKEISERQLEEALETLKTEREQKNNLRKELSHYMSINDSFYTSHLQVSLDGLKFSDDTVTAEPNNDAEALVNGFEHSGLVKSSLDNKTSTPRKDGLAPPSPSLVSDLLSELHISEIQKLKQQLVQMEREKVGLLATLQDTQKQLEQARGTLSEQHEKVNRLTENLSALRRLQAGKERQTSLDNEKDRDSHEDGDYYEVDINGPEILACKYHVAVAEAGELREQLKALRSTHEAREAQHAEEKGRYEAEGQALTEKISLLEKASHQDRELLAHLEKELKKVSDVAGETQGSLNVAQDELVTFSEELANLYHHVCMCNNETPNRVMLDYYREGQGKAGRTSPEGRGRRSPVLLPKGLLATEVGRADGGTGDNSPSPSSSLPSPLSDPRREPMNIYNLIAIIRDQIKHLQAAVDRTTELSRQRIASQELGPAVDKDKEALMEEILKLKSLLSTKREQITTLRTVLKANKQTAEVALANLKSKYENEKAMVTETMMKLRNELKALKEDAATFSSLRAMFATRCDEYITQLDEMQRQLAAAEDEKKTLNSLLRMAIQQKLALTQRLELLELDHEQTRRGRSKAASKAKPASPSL
GFP-BICD2 [1–575]: residues 1-575 of Q921C5
UniProt Q8TD16: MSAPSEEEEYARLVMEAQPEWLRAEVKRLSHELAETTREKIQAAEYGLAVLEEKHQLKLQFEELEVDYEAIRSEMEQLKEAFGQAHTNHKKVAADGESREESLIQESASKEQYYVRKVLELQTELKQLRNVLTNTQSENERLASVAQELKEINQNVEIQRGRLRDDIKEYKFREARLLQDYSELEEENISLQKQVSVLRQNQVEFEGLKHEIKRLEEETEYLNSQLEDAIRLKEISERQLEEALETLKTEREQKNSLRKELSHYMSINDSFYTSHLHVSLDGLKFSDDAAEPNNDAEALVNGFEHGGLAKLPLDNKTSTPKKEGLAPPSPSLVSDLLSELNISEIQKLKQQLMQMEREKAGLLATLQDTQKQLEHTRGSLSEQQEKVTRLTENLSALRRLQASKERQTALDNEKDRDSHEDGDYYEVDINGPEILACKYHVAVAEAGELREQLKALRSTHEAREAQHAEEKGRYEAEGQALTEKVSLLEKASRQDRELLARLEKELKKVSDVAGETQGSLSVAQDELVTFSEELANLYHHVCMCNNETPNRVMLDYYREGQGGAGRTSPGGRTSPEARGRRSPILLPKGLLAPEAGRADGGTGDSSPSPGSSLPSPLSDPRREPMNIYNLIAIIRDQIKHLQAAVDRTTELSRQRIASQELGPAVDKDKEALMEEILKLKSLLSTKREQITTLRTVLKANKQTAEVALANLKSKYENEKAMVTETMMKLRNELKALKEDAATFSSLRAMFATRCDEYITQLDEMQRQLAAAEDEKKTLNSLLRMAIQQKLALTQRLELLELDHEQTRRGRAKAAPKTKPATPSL

Substance	binding [1]	binding [2]	binding [3]	binding [4]	binding [5]
BICD2 (endogenous, HeLa cells) (from UniProt Q8TD16 1-824)	binds	–	–	–	–
GFP-BICD2 [T319A, S320A, T321A] (from UniProt Q921C5 1-820)	no binding	–	–	–	–
GFP-BICD2 wild type (from UniProt Q921C5 1-820)	binds	–	–	–	–
PLK1 (endogenous, HeLa cells) (from UniProt P53350 1-603) (enzyme)	–	binds	no binding	binds	binds
